Structures can show the parent of a compound that is named as a salt.
What follows are molecules tested on IL-17 production by CD4 T cells (assay: Human Th17 Assay (IL-17 production under Th17 differentiation conditions)). Conditions: Homo sapiens, CD4+ T, 72 h, read-out: Human Th17 Assay, IC50, IL-17 production, CD4 T cells, 3 days.

COc1nc2ccc(C(O)(c3ccc(C)nc3C)c3cnnn3C)cc2c(Cl)c1Cc1ccc(S(C)(=O)=O)cc1 (single isomer, unassigned) [Example 117c, (4-Chloro-2-methoxy-3-(4-(methylsulfonyl)benzyl)quinolin-6-yl)(2,6-dimethylpyridin-3-yl)(1-methyl-1H-1,2,3-triazol-5-yl)methanol] was tested. Which IC50 did it give?
Its IC50 is 29 nM.

How did the IC50 turn out when CNC(c1ccc2nc(OC)c(Cc3ccc(C(F)(F)F)cc3)c(Cl)c2c1)(c1ccc(C)nc1C)c1cnnn1C (single isomer, unassigned) [Example 121b, 1-(4-Chloro-2-methoxy-3-(4-(trifluoromethyl)benzyl)quinolin-6-yl)-1-(2,6-dimethylpyridin-3-yl)-N-methyl-1-(1-methyl-1H-1,2,3-triazol-5-yl)methanamine•TFA] was run?
The IC50 was 170 nM.

For Cn1cncc1C(O)(c1ccc(C(F)(F)F)nc1)c1ccc2nc(N3CC(O)C3)c(Cc3ccc(-n4cccn4)cc3)c(Cl)c2c1 (single isomer, unassigned) [Example 134b, 1-(4-Chloro-6-{hydroxy(1-methyl-1H-imidazol-5-yl)[6-(trifluoromethyl)pyridin-3-yl]methyl}-3-[4-(1H-pyrazol-1-yl)benzyl]quinolin-2-yl)azetidin-3-ol], which IC50 is on record?
Its IC50 is about 2000 nM.

How did the IC50 turn out when Cc1cc(C(O)(c2ccc(Cl)cc2)c2cncn2C)cc2c(Cl)c(Cc3ccc(-n4cccn4)cc3)c(N3CCC3)nc12 (single isomer, unassigned) [Example 136c, {2-Azetidin-1-yl-4-chloro-8-methyl-3-[4-(1H-pyrazol-1-yl)benzyl]quinolin-6-yl}(4-chlorophenyl)(1-methyl-1H-imidazol-5-yl)methanol] was run?
The IC50 was 74 nM.

For Cn1cncc1C(O)(c1ccc(Cl)cc1)c1ccc2nc(N3CCC3)c(Cc3ccc(-n4cccn4)cc3)c(Cl)c2c1 (single isomer, unassigned) [Example 138c, {2-Azetidin-1-yl-4-chloro-3-[4-(1H-pyrazol-1-yl)benzyl]quinolin-6-yl}(4-chlorophenyl)(1-methyl-1H-imidazol-5-yl)methanol], which IC50 is on record?
Its IC50 is 720 nM.

How did the IC50 turn out when Cc1ccc(C(O)(c2ccc3nc(N4CCC4)c(Cc4ccc(C(F)(F)F)cc4)c(Cl)c3c2)c2cnnn2C)c(C)n1 (single isomer, unassigned) [Example 140b, {2-Azetidin-1-yl-4-chloro-3-[4-(trifluoromethyl)benzyl]quinolin-6-yl}(2,6-dimethylpyridin-3-yl)(1-methyl-1H-1,2,3-triazol-5-yl)methanol] was run?
The IC50 was 28 nM.

How did the IC50 turn out when Cc1ccc(C(O)(c2ccc3nc(NC4CC4)c(Cc4ccc(C(F)(F)F)cc4)c(Cl)c3c2)c2cnnn2C)c(C)n1 (single isomer, unassigned) [Example 143c, {4-Chloro-2-(cyclopropylamino)-3-[4-(trifluoromethyl)benzyl]quinolin-6-yl}(2,6-dimethylpyridin-3-yl)(1-methyl-1H-1,2,3-triazol-5-yl)methanol] was run?
Its IC50 is 15 nM.

Cn1cncc1C(O)(c1ccc(C(F)(F)F)nc1)c1ccc2nc(N3CCCC3)c(Cc3ccc(-n4cccn4)cc3)c(Cl)c2c1 (single isomer, unassigned) [Example 145b, {4-Chloro-3-[4-(1H-pyrazol-1-yl)benzyl]-2-pyrrolidin-1-ylquinolin-6-yl}(1-methyl-1H-imidazol-5-yl)[6-(trifluoromethyl)pyridin-3-yl]methanol] was tested. Which IC50 did it give?
Its IC50 is 320 nM.

For Cn1cncc1C(O)(c1ccc(C(F)(F)F)nc1)c1ccc2nc(N3CCOCC3)c(Cc3ccc(-n4cccn4)cc3)c(Cl)c2c1 (single isomer, unassigned) [Example 146b, {4-Chloro-2-morpholin-4-yl-3-[4-(1H-pyrazol-1-yl)benzyl]quinolin-6-yl}(1-methyl-1H-imidazol-5-yl)[6-(trifluoromethyl)pyridin-3-yl]methanol], which IC50 is on record?
Its IC50 is 530 nM.

Cc1ccc(C(O)(c2ccc3nc(N4CC(F)(F)C4)c(Cc4ccc(C(F)(F)F)cc4)c(Cl)c3c2)c2cnnn2C)c(C)n1 (single isomer, unassigned) [Example 148c, {4-Chloro-2-(3,3-difluoroazetidin-1-yl)-3-[4-(trifluoromethyl)benzyl]quinolin-6-yl}(2,6-dimethylpyridin-3-yl)(1-methyl-1H-1,2,3-triazol-5-yl)methanol] was tested. Which IC50 did it give?
Its IC50 is 6.2 nM.

CCN(CC)c1nc2ccc(C(O)(c3ccc(Cl)cc3)c3cncn3C)cc2c(C#N)c1Cc1ccc(-n2cccn2)cc1 (single isomer, unassigned) [Example 154b, 3-(4-(1H-pyrazol-1-yl)benzyl)-6-((4-chlorophenyl)(hydroxy)(1-methyl-1H-imidazol-5-yl)methyl)-2-(diethylamino)quinoline4-carbonitrile] was tested. Which IC50 did it give?
Its IC50 is 67 nM.

Same assay, conditions: read-out: Human Th17 Assay, IC50; IL-17 production, CD4 T cells, 3 days

How did the IC50 turn out when CNC(c1ccc2nc(OC)c(Cc3ccc(C(F)(F)F)cc3)c(Cl)c2c1)(c1ccc(C)nc1C)c1cnnn1C (single isomer, unassigned) [Example 121c, 1-(4-Chloro-2-methoxy-3-(4-(trifluoromethyl)benzyl)quinolin-6-yl)-1-(2,6-dimethylpyridin-3-yl)-N-methyl-1-(1-methyl-1H-1,2,3-triazol-5-yl)methanamine•TFA] was run?
Its IC50 is 180 nM.

Which IC50 does the source give for Cn1cncc1C(O)(c1ccc(C(F)(F)F)nc1)c1ccc2nc(N3CC(F)(F)C3)c(Cc3ccc(-n4cccn4)cc3)c(Cl)c2c1 (single isomer, unassigned) [Example 135b, {4-Chloro-2-(3,3-difluoroazetidin-1-yl)-3-[4-(1H-pyrazol-1-yl)benzyl]quinolin-6-yl}(1-methyl-1H-imidazol-5-yl)[6-(trifluoromethyl)pyridin-3-yl]methanol] here?
The IC50 was 310 nM.

Cn1cncc1C(O)(c1ccc(C(F)(F)F)nc1)c1ccc2nc(N3CC(F)(F)C3)c(Cc3ccc(-n4cccn4)cc3)c(Cl)c2c1 (single isomer, unassigned) [Example 135c, {4-Chloro-2-(3,3-difluoroazetidin-1-yl)-3-[4-(1H-pyrazol-1-yl)benzyl]quinolin-6-yl}(1-methyl-1H-imidazol-5-yl)[6-(trifluoromethyl)pyridin-3-yl]methanol] was tested. Which IC50 did it give?
Its IC50 is 45 nM.

With Cc1cc(C(O)(c2ccc(C(F)(F)F)nc2)c2cncn2C)cc2c(Cl)c(Cc3ccc(-n4cccn4)cc3)c(N3CCC3)nc12 (single isomer, unassigned) [Example 137b, {2-Azetidin-1-yl-4-chloro-8-methyl-3-[4-(1H-pyrazol-1-yl)benzyl]quinolin-6-yl}(1-methyl-1H-imidazol-5-yl)[6-(trifluoromethyl)pyridin-3-yl]methanol] as the molecule, how does the IC50 read?
Its IC50 is 220 nM.

Which IC50 does the source give for Cc1cc(C(O)(c2ccc(C(F)(F)F)nc2)c2cncn2C)cc2c(Cl)c(Cc3ccc(-n4cccn4)cc3)c(N3CCC3)nc12 (single isomer, unassigned) [Example 137c, {2-Azetidin-1-yl-4-chloro-8-methyl-3-[4-(1H-pyrazol-1-yl)benzyl]quinolin-6-yl}(1-methyl-1H-imidazol-5-yl)[6-(trifluoromethyl)pyridin-3-yl]methanol] here?
Its IC50 is 37 nM.

How did the IC50 turn out when Cn1cncc1C(O)(c1ccc(C(F)(F)F)nc1)c1ccc2nc(N3CC(F)C3)c(Cc3ccc(-n4cccn4)cc3)c(Cl)c2c1 (single isomer, unassigned) [Example 147b, {4-Chloro-2-(3-fluoroazetidin-1-yl)-3-[4-(1H-pyrazol-1-yl)benzyl]quinolin-6-yl}(1-methyl-1H-imidazol-5-yl)[6-(trifluoromethyl)pyridin-3-yl]methanol] was run?
The IC50 was 210 nM.

With Cn1cncc1C(O)(c1ccc(C(F)(F)F)nc1)c1ccc2nc(N3CC(F)C3)c(Cc3ccc(-n4cccn4)cc3)c(Cl)c2c1 (single isomer, unassigned) [Example 147c, {4-Chloro-2-(3-fluoroazetidin-1-yl)-3-[4-(1H-pyrazol-1-yl)benzyl]quinolin-6-yl}(1-methyl-1H-imidazol-5-yl)[6-(trifluoromethyl)pyridin-3-yl]methanol] as the molecule, how does the IC50 read?
The IC50 was 36 nM.

With COc1nc2ccc(C(O)(c3oc(C)nc3C)c3cnnn3C)cc2c(Cl)c1Cc1ccc(C(F)(F)F)cc1 (single isomer, unassigned) [Example 156b, (4-chloro-2-methoxy-3-(4-(trifluoromethyl)benzyl)quinolin-6-yl)(2,4-dimethylozazol-5-yl)(1-methyl-1H-1,2,3-triazol-5-yl)methanol] as the molecule, how does the IC50 read?
Its IC50 is 82 nM.

For COc1nc2ccc(C(O)(c3oc(C)nc3C)c3cnnn3C)cc2c(Cl)c1Cc1ccc(C(F)(F)F)cc1 (single isomer, unassigned) [Example 156c, (4-chloro-2-methoxy-3-(4-(trifluoromethyl)benzyl)quinolin-6-yl)(2,4-dimethylozazol-5-yl)(1-methyl-1H-1,2,3-triazol-5-yl)methanol], which IC50 is on record?
Its IC50 is 3.3 nM.

COc1nc2ccc(C(O)(c3ccc(F)cc3)C3CCN(C(C)=O)CC3)cc2c(Cl)c1Cc1ccc(-n2cccn2)cc1 (single isomer, unassigned) [Example 157b, 1-(4-((3-(4-(1H-Pyrazol-1-yl)benzyl)4-chloro-2-methoxyquinolin-6-yl)(4-fluorophenyl)(hydroxy)methyl)piperidin-1-yl)ethanone] was tested. Which IC50 did it give?
The IC50 was 25 nM.

With COc1nc2ccc(C(O)(c3ccc(F)cc3)C3CCN(C(C)=O)CC3)cc2c(Cl)c1Cc1ccc(-n2cccn2)cc1 (single isomer, unassigned) [Example 157c, 1-(4-((3-(4-(1H-Pyrazol-1-yl)benzyl)4-chloro-2-methoxyquinolin-6-yl)(4-fluorophenyl)(hydroxy)methyl)piperidin-1-yl)ethanone] as the molecule, how does the IC50 read?
Its IC50 is 370 nM.

Which IC50 does the source give for COc1nc2ccc(C(O)(c3ccc(F)cc3)c3cccnc3)cc2c(Cl)c1Cc1ccc(-n2cccn2)cc1 (single isomer, unassigned) [Example 158b, (3-(4-(1H-Pyrazol-1-yl)benzyl)-4-chloro-2-methoxyquinolin-6-yl)(4-fluorophenyl)(pyridin-3-yl)methanol] here?
The IC50 was 570 nM.

How did the IC50 turn out when COc1nc2ccc(C(O)(c3ccc(F)cc3)c3cccnc3)cc2c(Cl)c1Cc1ccc(-n2cccn2)cc1 (single isomer, unassigned) [Example 158c, (3-(4-(1H-Pyrazol-1-yl)benzyl)-4-chloro-2-methoxyquinolin-6-yl)(4-fluorophenyl)(pyridin-3-yl)methanol] was run?
The IC50 was 22 nM.

Source: patent EP3057951B1, “METHYLENE LINKED QUINOLINYL MODULATORS OF ROR-GAMMA-T” (Janssen Pharmaceutica NV, priority 2013, dated 2015)
